This is one part of the list. Repeats are few or missing, and single values can be far off.
Test system: C32
Experiment: cell count relative to DMSO control; melanoma cells; higher = more viable cells
Conditions: library dose: standard library concentration; 72 h
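Also: cells treated in 1,536-well plates, then fixed and DAPI-stained, with nuclei counted from automated high-throughput microscope images.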

SMILES | cell count
CCCCCCCCc1ccc(CCC(N)(CO)CO)cc1 [fingolimod] + Cc1cc([N+](=O)[O-])ccc1NS(=O)(=O)c1cc(Cl)ccc1Cl [FH535] (first compound 10 µM, partner dose 5 µM) | 6.32%
CN(NC(=O)CC(=O)NN(C)C(=S)c1ccccc1)C(=S)c1ccccc1 + COc1cc2c(Oc3ccc4[nH]c(C)cc4c3F)ncnc2cc1OCCCN1CCCC1 [cediranib] (first compound 0.03 µM, partner dose 2 µM) | 32.1%
CCc1ccc(CCOc2ccc(CC3SC(=O)NC3=O)cc2)nc1 (stereo not given) [pioglitazone] + O=C1NC(=O)/C(=C/c2ccc(-c3ccc(F)cc3O)o2)S1 [AS252424] (first compound 10 µM, partner dose 5 µM) | 108%
Cc1ccc(NC(=O)c2cccc(N(C)C)c2)cc1NC(=O)c1ccc(O)cc1 + CCCCCCCCCCCC1=C(O)C(=O)C=C(O)C1=O [Embelin] (first compound 10 µM, partner dose 6 µM) | 92.3%
Cc1ccc(NC(=O)c2cccc(N(C)C)c2)cc1NC(=O)c1ccc(O)cc1 + COc1ccc2c(c1)CCC1C2CCC2(C)C(NCCCCCCN3C(=O)C=CC3=O)CCC12 [U73122] (first compound 10 µM, partner dose 2 µM) | 66%
CC(C)(C)c1cnc(CSc2cnc(NC(=O)C3CCNCC3)s2)o1 + CN(NC(=O)CC(=O)NN(C)C(=S)c1ccccc1)C(=S)c1ccccc1 [STA4783] (first compound 0.05 µM, partner dose 0.03 µM) | 17.7%
CN(NC(=O)CC(=O)NN(C)C(=S)c1ccccc1)C(=S)c1ccccc1 + COc1cc(N2CCC(N3CCN(C)CC3)CC2)ccc1Nc1ncc(Cl)c(Nc2ccccc2S(=O)(=O)C(C)C)n1 [NVP-TAE684] (first compound 0.03 µM, partner dose 0.4 µM) | 17.9%
CN(NC(=O)CC(=O)NN(C)C(=S)c1ccccc1)C(=S)c1ccccc1 + CCCCCCCCCCCC1=C(O)C(=O)C=C(O)C1=O [Embelin] (first compound 0.03 µM, partner dose 6 µM) | 44.4%
CC(C)(C)c1cnc(CSc2cnc(NC(=O)C3CCNCC3)s2)o1 + O=C(Nc1ccccc1)c1cc([N+](=O)[O-])ccc1Cl [GW9662] (first compound 0.05 µM, partner dose 10 µM) | 84.8%
CCCCCCCCc1ccc(CCC(N)(CO)CO)cc1 [fingolimod] + CCCS(=O)(=O)Nc1ccc(F)c(C(=O)c2c[nH]c3ncc(Cl)cc23)c1F [PLX4720] (first compound 10 µM, partner dose 0.4 µM) | 8.48%
CCCCCCCCc1ccc(CCC(N)(CO)CO)cc1 [fingolimod] + O=C(O)C(=O)Nc1sc2c(c1C(=O)O)CCNC2 [TCS401] (first compound 10 µM, partner dose 8.33333 µM) | 11.5%
CCc1ccc(CCOc2ccc(CC3SC(=O)NC3=O)cc2)nc1 (stereo not given) [pioglitazone] + COC(=O)c1sccc1S(=O)(=O)Nc1ccc(Nc2ccccc2)cc1OC [GSK0660] (first compound 10 µM, partner dose 5 µM) | 105%
COc1cc2c(Oc3ccc4[nH]c(C)cc4c3F)ncnc2cc1OCCCN1CCCC1 [cediranib] + COc1cc(N2CCC(N3CCN(C)CC3)CC2)ccc1Nc1ncc(Cl)c(Nc2ccccc2S(=O)(=O)C(C)C)n1 [NVP-TAE684] (first compound 2 µM, partner dose 0.4 µM) | 69.2%
CC(C)(C)c1cnc(CSc2cnc(NC(=O)C3CCNCC3)s2)o1 + CCCCCCCCCCCC1=C(O)C(=O)C=C(O)C1=O [Embelin] (first compound 0.05 µM, partner dose 6 µM) | 79.3%
CCCCCCCCc1ccc(CCC(N)(CO)CO)cc1 [fingolimod] + CN1CCN(c2ccc3nc(-c4c(N)c5c(F)cccc5[nH]c4=O)[nH]c3c2)CC1 [Dovitinib] (first compound 10 µM, partner dose 0.5 µM) | 8.06%
CCCCCCCCc1ccc(CCC(N)(CO)CO)cc1 [fingolimod] + COc1ccc2c(c1)CCC1C2CCC2(C)C(NCCCCCCN3C(=O)C=CC3=O)CCC12 [U73122] (first compound 10 µM, partner dose 2 µM) | 12.9%
Cc1ccc(NC(=O)c2cccc(N(C)C)c2)cc1NC(=O)c1ccc(O)cc1 + Cc1cc(N2CCOCC2)cc2[nH]c(-c3c(NC[C@@H](O)c4cccc(Cl)c4)cc[nH]c3=O)nc12 [BMS536924] (first compound 10 µM, partner dose 1 µM) | 102%
NC(=O)c1ccc(N(C(N)=O)c2c(F)cccc2F)nc1-c1ccc(F)cc1F + CCCCCCCCCCCC1=C(O)C(=O)C=C(O)C1=O [Embelin] (first compound 2 µM, partner dose 6 µM) | 99.7%

SMILES | cell count
NC(=O)c1ccc(N(C(N)=O)c2c(F)cccc2F)nc1-c1ccc(F)cc1F + Cn1nnc2c(C(N)=O)ncn2c1=O [temozolomide] (first compound 2 µM, partner dose 10 µM) | 109%
CN(NC(=O)CC(=O)NN(C)C(=S)c1ccccc1)C(=S)c1ccccc1 + COc1ccc2c(c1)CCC1C2CCC2(C)C(NCCCCCCN3C(=O)C=CC3=O)CCC12 [U73122] (first compound 0.03 µM, partner dose 2 µM) | 85.4%
NC(=O)c1ccc(N(C(N)=O)c2c(F)cccc2F)nc1-c1ccc(F)cc1F + CN(NC(=O)CC(=O)NN(C)C(=S)c1ccccc1)C(=S)c1ccccc1 [STA4783] (first compound 2 µM, partner dose 0.03 µM) | 24.1%
Cc1ccc(NC(=O)c2cccc(N(C)C)c2)cc1NC(=O)c1ccc(O)cc1 + O=C(Nc1cccc(Cl)c1)Nc1ncc(CCNc2ncnc3ccsc23)s1 [SNS314] (first compound 10 µM, partner dose 0.004 µM) | 59%
CCCCCCCCc1ccc(CCC(N)(CO)CO)cc1 [fingolimod] + COC(=O)c1sccc1S(=O)(=O)Nc1ccc(Nc2ccccc2)cc1OC [GSK0660] (first compound 10 µM, partner dose 5 µM) | 6.56%
CCCCCCCCc1ccc(CCC(N)(CO)CO)cc1 [fingolimod] + CCCCCCCCCCCC1=C(O)C(=O)C=C(O)C1=O [Embelin] (first compound 10 µM, partner dose 6 µM) | 44.3%
NC(=O)c1ccc(N(C(N)=O)c2c(F)cccc2F)nc1-c1ccc(F)cc1F + CN1CCN(c2ccc3nc(-c4c(N)c5c(F)cccc5[nH]c4=O)[nH]c3c2)CC1 [Dovitinib] (first compound 2 µM, partner dose 0.5 µM) | 78.4%
CC(C)(C)c1cnc(CSc2cnc(NC(=O)C3CCNCC3)s2)o1 + NCC(=O)Nc1ccc(-n2nc(C(F)(F)F)cc2-c2ccc3c(ccc4ccccc43)c2)cc1 [OSU03012] (first compound 0.05 µM, partner dose 5 µM) | 60.4%
CCCCCCCCc1ccc(CCC(N)(CO)CO)cc1 [fingolimod] + NC1(c2ccc(-c3nc4ccn5c(=O)[nH]nc5c4cc3-c3ccccc3)cc2)CCC1 [MK2206] (first compound 10 µM, partner dose 2 µM) | 12.2%
CC(C)(C)c1cnc(CSc2cnc(NC(=O)C3CCNCC3)s2)o1 + Oc1cc(-c2nc(-c3ccccc3)[nH]c2-c2ccncc2)ccc1Cl [L779450] (first compound 0.05 µM, partner dose 1 µM) | 84.2%
CCc1ccc(CCOc2ccc(CC3SC(=O)NC3=O)cc2)nc1 (stereo not given) [pioglitazone] + Oc1nc(-c2ccc(C(F)(F)F)cc2)nc2c1CSCC2 [XAV939] (first compound 10 µM, partner dose 10 µM) | 77.9%
COc1cc2c(Oc3ccc4[nH]c(C)cc4c3F)ncnc2cc1OCCCN1CCCC1 [cediranib] + Cn1cc(/C=C2\C(=O)Nc3cccnc32)c2ccccc21 [GW441756] (first compound 2 µM, partner dose 2 µM) | 84.6%
CCCCCCCCc1ccc(CCC(N)(CO)CO)cc1 [fingolimod] + Cn1cncc1[C@@](N)(c1ccc(Cl)cc1)c1ccc2c(c1)c(-c1cccc(Cl)c1)cc(=O)n2C [tipifarnib] (first compound 10 µM, partner dose 0.05 µM) | 1.72%
CCc1ccc(CCOc2ccc(CC3SC(=O)NC3=O)cc2)nc1 (stereo not given) [pioglitazone] + Cc1cc([N+](=O)[O-])ccc1NS(=O)(=O)c1cc(Cl)ccc1Cl [FH535] (first compound 10 µM, partner dose 5 µM) | 89.9%
CCCCCCCCc1ccc(CCC(N)(CO)CO)cc1 [fingolimod] + COCC[n+]1c2c(n(Cc3cnccn3)c1C)C(=O)c1ccccc1C2=O [YM155] (first compound 10 µM, partner dose 0.002 µM) | 9.87%
NC(=O)c1ccc(N(C(N)=O)c2c(F)cccc2F)nc1-c1ccc(F)cc1F + O=C1NC(=O)/C(=C/c2ccc(-c3ccc(F)cc3O)o2)S1 [AS252424] (first compound 2 µM, partner dose 5 µM) | 96.7%
NC(=O)c1ccc(N(C(N)=O)c2c(F)cccc2F)nc1-c1ccc(F)cc1F + Cc1nc(Nc2ncc(C(=O)Nc3c(C)cccc3Cl)s2)cc(N2CCN(CCO)CC2)n1 [dasatanib] (first compound 2 µM, partner dose 0.02 µM) | 56.1%

From the supplement of paper PMC4604168 (melanoma cell lines)
